Experimental data as given in the supplement of paper PMC4604168 (melanoma cell lines).
The list shows a part of the results. Single values are uncertain, as repeats are few or missing.

test system: 501Mel; experiment: cell count relative to DMSO control; melanoma cells; higher = more viable cells; settings: library dose: low library concentration; 72 h; first compound 0.4 µM
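Note: cell number obtained by counting DAPI-stained nuclei in high-throughput microscope images with image analysis software, screen run in 1,536-well plates.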

| Structure (SMILES) | cell count [%] |
| --- | --- |
| Cn1sc(=O)n(Cc2ccccc2)c1=O + c1cc(-c2cnn3cc(-c4ccc(OCCN5CCCCC5)cc4)cnc23)ccn1 [Dorsomorphin] (partner dose 0.4 µM) | 93.4 |
| C[C@@H](N)c1ccc(C(=O)Nc2ccnc3[nH]ccc23)cc1 + COC(=O)c1sccc1S(=O)(=O)Nc1ccc(Nc2ccccc2)cc1OC [GSK0660] (partner dose 1 µM) | 119 |
| Cn1sc(=O)n(Cc2ccccc2)c1=O + Oc1cc(-c2nc(-c3ccccc3)[nH]c2-c2ccncc2)ccc1Cl [L779450] (partner dose 0.2 µM) | 70.9 |
| CCCCCCCCCCCCCCCCCCOP(=O)([O-])OC1CC[N+](C)(C)CC1 [Perifosine] + CC(C)CCN1c2nc(Nc3cc(F)c(O)c(F)c3)ncc2N(C)C(=O)C1C [BID1870] (partner dose 0.2 µM) | 114 |
| Cn1sc(=O)n(Cc2ccccc2)c1=O + Oc1nc(-c2ccc(C(F)(F)F)cc2)nc2c1CSCC2 [XAV939] (partner dose 2 µM) | 86.1 |
| C[C@@H](N)c1ccc(C(=O)Nc2ccnc3[nH]ccc23)cc1 + CC(C)CCN1c2nc(Nc3cc(F)c(O)c(F)c3)ncc2N(C)C(=O)C1C [BID1870] (partner dose 0.2 µM) | 89.8 |
| CCCCCCCCCCCCCCCCCCOP(=O)([O-])OC1CC[N+](C)(C)CC1 [Perifosine] + Oc1cc(-c2nc(-c3ccccc3)[nH]c2-c2ccncc2)ccc1Cl [L779450] (partner dose 0.2 µM) | 89.5 |
| C[C@@H](N)c1ccc(C(=O)Nc2ccnc3[nH]ccc23)cc1 + COc1ccc(COc2ccc(Cc3cnc(N)nc3N)cc2OC)cc1 [GW2580] (partner dose 1 µM) | 117 |
| CCCCCCCCCCCCCCCCCCOP(=O)([O-])OC1CC[N+](C)(C)CC1 [Perifosine] + Cn1cc(/C=C2\C(=O)Nc3cccnc32)c2ccccc21 [GW441756] (partner dose 0.4 µM) | 110 |
| Cn1sc(=O)n(Cc2ccccc2)c1=O + COc1ccc(-c2ccc3c(N4CCOCC4)nc(N4C[C@@H](C)O[C@@H](C)C4)nc3n2)cc1CO [KU0063794] (partner dose 0.02 µM) | 93.3 |
| Cn1sc(=O)n(Cc2ccccc2)c1=O + COc1ccc(COc2ccc(Cc3cnc(N)nc3N)cc2OC)cc1 [GW2580] (partner dose 1 µM) | 93.9 |
| CCCCCCCCCCCCCCCCCCOP(=O)([O-])OC1CC[N+](C)(C)CC1 [Perifosine] + c1cc(-c2cnn3cc(-c4ccc(OCCN5CCCCC5)cc4)cnc23)ccn1 [Dorsomorphin] (partner dose 0.4 µM) | 75.2 |
| C[C@@H](N)c1ccc(C(=O)Nc2ccnc3[nH]ccc23)cc1 + COc1cc2ncnc(Nc3ccc(Oc4ccccc4)cc3)c2cc1OC [SrcI1] (partner dose 2 µM) | 112 |
| Cn1sc(=O)n(Cc2ccccc2)c1=O + CCc1ccc(CCOc2ccc(CC3SC(=O)NC3=O)cc2)nc1 [pioglitazone] (partner dose 2 µM) | 99.3 |
| Cn1sc(=O)n(Cc2ccccc2)c1=O + O=S(=O)(c1ccccc1)N(CC(F)(F)F)c1ccc(C(O)(C(F)(F)F)C(F)(F)F)cc1 [T0901317] (partner dose 1.4 µM) | 96.5 |
| CCCCCCCCCCCCCCCCCCOP(=O)([O-])OC1CC[N+](C)(C)CC1 [Perifosine] + CCN(CC)CCCCNc1ncc2cc(-c3cc(OC)cc(OC)c3)c(NC(=O)NC(C)(C)C)nc2n1 [PD173074] (partner dose 0.1 µM) | 119 |
| C[C@@H](N)c1ccc(C(=O)Nc2ccnc3[nH]ccc23)cc1 + O=C1NC(=O)/C(=C/c2ccc(-c3ccc(F)cc3O)o2)S1 [AS252424] (partner dose 1 µM) | 90.1 |
| C[C@@H](N)c1ccc(C(=O)Nc2ccnc3[nH]ccc23)cc1 + COc1ccc2c(c1)CCC1C2CCC2(C)C(NCCCCCCN3C(=O)C=CC3=O)CCC12 [U73122] (partner dose 0.4 µM) | 127 |
| CCCCCCCCCCCCCCCCCCOP(=O)([O-])OC1CC[N+](C)(C)CC1 [Perifosine] + COc1ccc(COc2ccc(Cc3cnc(N)nc3N)cc2OC)cc1 [GW2580] (partner dose 1 µM) | 77.1 |
| CCCCCCCCCCCCCCCCCCOP(=O)([O-])OC1CC[N+](C)(C)CC1 [Perifosine] + COC(=O)c1sccc1S(=O)(=O)Nc1ccc(Nc2ccccc2)cc1OC [GSK0660] (partner dose 1 µM) | 112 |
| C[C@@H](N)c1ccc(C(=O)Nc2ccnc3[nH]ccc23)cc1 + O=C(O)C(=O)Nc1sc2c(c1C(=O)O)CCNC2 [TCS401] (partner dose 1.66667 µM) | 98.1 |
| Cn1sc(=O)n(Cc2ccccc2)c1=O + COc1ccc2c(c1)CCC1C2CCC2(C)C(NCCCCCCN3C(=O)C=CC3=O)CCC12 [U73122] (partner dose 0.4 µM) | 88.8 |
| CCCCCCCCCCCCCCCCCCOP(=O)([O-])OC1CC[N+](C)(C)CC1 [Perifosine] + CCCCCCCCCCCC1=C(O)C(=O)C=C(O)C1=O [Embelin] (partner dose 1.2 µM) | 99.1 |
| C[C@@H](N)c1ccc(C(=O)Nc2ccnc3[nH]ccc23)cc1 + COc1cc(N2CCC(N3CCN(C)CC3)CC2)ccc1Nc1ncc(Cl)c(Nc2ccccc2S(=O)(=O)C(C)C)n1 [NVP-TAE684] (partner dose 0.08 µM) | 111 |
| CCCCCCCCCCCCCCCCCCOP(=O)([O-])OC1CC[N+](C)(C)CC1 [Perifosine] + COc1cc2ncnc(Nc3ccc(Oc4ccccc4)cc3)c2cc1OC [SrcI1] (partner dose 2 µM) | 65.3 |
| Cn1sc(=O)n(Cc2ccccc2)c1=O + COC(=O)c1sccc1S(=O)(=O)Nc1ccc(Nc2ccccc2)cc1OC [GSK0660] (partner dose 1 µM) | 106 |
| C[C@@H](N)c1ccc(C(=O)Nc2ccnc3[nH]ccc23)cc1 + Oc1nc(-c2ccc(C(F)(F)F)cc2)nc2c1CSCC2 [XAV939] (partner dose 2 µM) | 105 |
| C[C@@H](N)c1ccc(C(=O)Nc2ccnc3[nH]ccc23)cc1 + CCc1ccc(CCOc2ccc(CC3SC(=O)NC3=O)cc2)nc1 [pioglitazone] (partner dose 2 µM) | 87.7 |
